Source: PubChem BioAssay AID1345083 (National Center for Advancing Translational Sciences (NCATS), 2018)
Screen size: about 94,000 compounds; about 6,200 (6.6%) were called active. This list was built around the results that the source calls inconclusive (neither active nor inactive); the mix of calls is not that of the screen. Calls follow the shape of the dose curve; as a rule, active = well fitted inhibition curve with a large enough effect; inconclusive = small, poorly fitted or top-dose-only effect; inactive = flat fitted curve, though single readings scatter. Where the call is inconclusive, the potency comes from a doubtful curve fit.
% is scaled to controls: 0 for no effect and ±100 for the full control effect; potency is read from the fitted curve at half-maximal effect; tags tell the direction and shape of the fitted curve.

Assay: Cytotoxic Profiling in HEK 293 Cell Line of Diverse Libraries Using Quantitative High-Throughput Screening; also: nearly all actives have a fitted effect of over 60% in size
Details: HEK 293 viability, ATP luminescence (CellTiter-Glo), 48-72 h; activity change, negative = cytotoxicity: at 115 µM (top of the series) unless noted; series mostly up to 115 µM
Excerpt: Cell-based phenotypic screening is a commonly used approach to discover biological pathways, novel drug targets, chemical probes and high-quality hit-to-lead molecules. Many hits identified from high-throughput screening campaign are ruled out through a series of follow-up potency, selectivity/specificity, and cytotoxicity assays. Prioritization of molecules with little or no cytotoxicity for a more in-depth downstream evaluation influence the future direction of projects, so cytotoxicity profiling of the screening libraries at early stage is essential for increasing the likelihood of candidate success. In this study, we analyzed results from a cell-based cytotoxicity screening campaign, comprising nearly 10,000 compounds in NCATS annotated libraries, and over 100,000 compounds in a diversity library, evaluated in four normal cell lines (HEK 293, NIH 3T3, CRL-7250 and HaCat) and a cancer cell line (KB 3-1, a HeLa subline) with overall screening outcomes, hit rates, pan-activity and selectivity. For the annotated library, we also examined the primary targets and mechanistic pathways regularly associated with cell death. To our knowledge, this is the first study to use high-throughput screening to profile large libraries for cytotoxicity assessment in both normal and cancer cell lines. In summary, the results generated here constitutes a valuable resource for the scientific community and provides insight on identifying cytotoxic compounds with particular mechanisms of action, and prioritizing compounds with suitable cytotoxicity profile for further evaluation.
HEK 293 cells were seeded into white 1536-well plates using a Multidrop Combi peristaltic dispenser (ThermoFisher, Waltham, MA) at a density of 250 cells/well in 5 uL of medium respectively. A pintool (Kalypsys) was used to transfer 23 nL of compound solution to the 1536-well assay plates. After 48 or 72 hr incubation at 37 degree Celsius, 5% CO2 and 95% humidity, 2.5 uL of CellTiter-Glo (Promega) was dispensed into each well using a dispenser (Aspect Automation, St. Paul, MN) with solenoid valves (Lee Valves, Westbrook CT). Plates were left at room temperature for 10 min before imaging the ATP-coupled luminescence using a ViewLux microplate imager (PerkinElmer, Waltham, MA).
In the case of `Cc1ccc(CCNC(=O)c2ccc(Cn3ccn4nc5c(c4c3=O)CCCC5)cc2)cc1`, the Potency is reported as inconclusive: 44.7 µM [inhibitor, partial curve].
For `CCCNc1ccc2nnc(CC)n2n1`, the “activity change, negative = cytotoxicity” value was inactive: -0.572%.
With `O=[S+]1([O-])NC2(CCCN(Cc3cccc(C(F)(F)F)c3)C2)COc2ccccc21` (stereo not given) the Potency was inconclusive: 56.2 µM [inhibitor, partial curve, poor fit].
In the case of `O=C(Nc1cccc(F)c1)N1Cc2[nH]cnc2C[C@H]1c1nc(-c2ccc(F)c(Cl)c2)no1`, the Potency is reported as inconclusive: 50.1 µM [inhibitor, partial curve, poor fit].
For `O=C(NC1CCCN(c2cc(-c3ccccc3)[nH]n2)C1)c1ccccc1F` (stereo not given), the Potency was inconclusive: 56.2 µM [inhibitor, partial curve, poor fit].
For `Cc1cc2cc(-c3c(C)noc3C)nc(-c3ccc([S+](C)(=O)[O-])cc3)c2o1`, the “activity change, negative = cytotoxicity” value was inactive: -19.6% [at 172 µM].
For `CC(C)c1ccc(S(=O)(=O)N2CCCN(C)c3ccccc32)cc1`, the Potency was inconclusive: 56.2 µM [inhibitor, partial curve, poor fit].
For `O=C(NC[C@H]1O[C@H](Cc2cc(CN3CCOCC3)on2)CC[C@@H]1O)N1CCOCC1`, the Potency was inconclusive: 126 µM [inhibitor, single point].
In the case of `CCOc1ccccc1NC(=O)C[C@H]1NC(=O)c2ccccc2NC1=O`, the “activity change, negative = cytotoxicity” value is reported as inactive: -2.7%.
In the case of `COc1ccccc1C(=O)N1CC(N2C(=O)c3c(c(C)nn3-c3ccccc3)C2C)C1` (stereo not given), the Potency is reported as inconclusive: 50.1 µM [inhibitor, partial curve, poor fit].
In the case of `Cc1nn(-c2ccccc2)c2c1C(C)N(C1CN(C(=O)c3ccccc3Cl)C1)C2=O` (stereo not given), the Potency is reported as inconclusive: 50.1 µM [inhibitor, partial curve, poor fit].
In the case of `O=C(NCCCc1ccccc1)c1n[nH]c2c1CN(C(=O)c1ccc(F)c(F)c1)CC2`, the Potency is reported as inconclusive: 89.1 µM [inhibitor, single point].
With `O=C(c1cccnc1)N1CCC(Cc2nc(C3CCOCC3)no2)CC1` the Potency was inconclusive: 50.1 µM [inhibitor, partial curve, poor fit].
With `CCOC(=O)C1(Cc2ccccc2F)CCCN(C(=O)C2=C(C)OCCO2)C1` (stereo not given) the Potency was inconclusive: 89.1 µM [inhibitor, single point].
With `O=C(NCc1ccccc1F)c1nc2cccnc2n(Cc2ccccc2)c1=O` the Potency was active: 79.4 µM.
For `Cc1ccc(Cn2c(C3CCN(C(=O)c4cccc(C(F)(F)F)c4)CC3)n[nH]c2=O)cc1`, the Potency was inconclusive: 50.1 µM [inhibitor, partial curve].
With `Cc1ccc(C2Cn3nnc(-c4noc(-c5ccccn5)n4)c3CO2)cc1` (stereo not given) the “activity change, negative = cytotoxicity” value was inactive: 5.44%.
With `NC(=O)C1CCN(c2cc(-c3noc([C@@H]4CCCN4Cc4ccncc4)n3)ccn2)CC1` the Potency was inconclusive: 35.5 µM [inhibitor, full curve].
For `O=S(=O)(c1cccc(C(F)(F)F)c1)N1CCCC(Cn2cnc3cccnc32)C1` (stereo not given), the Potency was inconclusive: 56.2 µM [inhibitor, single point].
In the case of `O=S(=O)(c1ccc2c(c1)CCC2)N1CCCC1Cc1noc(-c2ccccc2)n1` (stereo not given), the Potency is reported as inconclusive: 6.31 µM [inhibitor, full curve, poor fit].
For `COc1ccccc1Oc1ncccc1CNC(=O)c1ccc(CO)o1`, the Potency was inconclusive: 70.8 µM [inhibitor, single point].
For `O=C(C1CCCN([S+](=O)([O-])c2cccc(C(F)(F)F)c2)C1)N1CCC(N2Cc3cccn3C2=O)CC1` (stereo not given), the Potency was inconclusive: 50.1 µM [inhibitor, partial curve, poor fit].
With `N[C@H]1CN(S(=O)(=O)c2ccc(OC(F)F)cc2)C[C@@H]1C1CC1` the “outcome” value was “inactive”.
With `O=C(NC1CCN(c2cc(-c3ccc(Cl)cc3)[nH]n2)C1)c1ccc2cc[nH]c2c1` (stereo not given) the Potency was inconclusive: 50.1 µM [inhibitor, partial curve, poor fit].
In the case of `O=C(c1ccoc1)N1CC(F)(F)C[C@H]1c1nc(-c2ncccn2)no1`, the “activity change, negative = cytotoxicity” value is reported as inactive: -21.7%.
For `Cc1ccc(NC(=O)C2CCN(c3cc(C(F)(F)F)ncn3)CC2)c(C)c1`, the Potency was inconclusive: 89.1 µM [inhibitor, single point].
For `COc1ccc(S(=O)(=O)NC2CCN(c3ccc(=O)n(C)n3)CC2)cc1`, the Potency was inconclusive: 50.1 µM [inhibitor, partial curve, poor fit].
With `CCS(=O)(=O)N(C1CC1)C1CCOC2(CCN(C(=O)c3cc(F)ccc3F)CC2)C1` (stereo not given) the Potency was inconclusive: 100 µM [inhibitor, single point].
In the case of `C[S+](=O)([O-])N1Cc2ccccc2CC2(CCCN(Cc3ccccc3)C2)C1` (stereo not given), the Potency is reported as inconclusive: 7.08 µM [inhibitor, partial curve, poor fit].
For `O=C(N1CCCC1c1nc(CCOCC2CC2)no1)C1(c2ccccc2)CC1` (stereo not given), the “activity change, negative = cytotoxicity” value was inactive: -12.4%.
For `CC(=O)N1CC2(CCCCN2Cc2cccc(C(N)=O)c2)Cc2ccccc21` (stereo not given), the “activity change, negative = cytotoxicity” value was inactive: -31.2%.
For `CC(C)(C)c1nnc2ccc(C(=O)NCc3ccccc3)cn12`, the “activity change, negative = cytotoxicity” value was inactive: -17.5% [at 172 µM].
For `Cc1noc([C@@H]2CC(F)(F)CN2C(=O)Cc2ccc(F)cc2)n1`, the “activity change, negative = cytotoxicity” value was inactive: -9.93%.
In the case of `COc1ccc2nc(CO[C@H]3CN(Cc4cn(C)c5ccccc45)C[C@H]3F)[nH]c2c1`, the Potency is reported as inconclusive: 100 µM [inhibitor, partial curve, poor fit].
For `CCC1Oc2ccc(NC(=O)c3ccc4c(c3)OCO4)cc2CN(Cc2ccc(F)cc2)C1=O` (stereo not given), the Potency was active: 14.1 µM.
For `COc1ccc(Cl)cc1C(=O)N1CCN(c2cc(C(F)(F)F)nc(C)n2)CC1`, the Potency was inconclusive: 44.7 µM [inhibitor, partial curve, poor fit].
For `COc1ccc(-c2cc(-c3cnc4[nH]ccc4c3)cn3cncc23)cn1`, the Potency was inconclusive: 89.1 µM [inhibitor, partial curve, poor fit].
In the case of `CC(C)(C)OC(=O)N1CC(c2cncnc2)C1`, the “outcome” value is reported as “inactive [at 230 µM]”.
With `CCN(CC)Cc1cnc2c(C(=O)Nc3ccc(C)cc3Cl)cnn2c1` the Potency was inconclusive: 56.2 µM [inhibitor, partial curve, poor fit].
For `CN(C)C(=O)CC1CCCCN(Cc2ccccc2)C1=O` (stereo not given), the “activity change, negative = cytotoxicity” value was inactive: -29.3%.
With `Cc1ccc(CNC(=O)CCC2CCCN(S(=O)(=O)c3ccccc3F)C2)o1` (stereo not given) the Potency was inconclusive: 50.1 µM [inhibitor, partial curve, poor fit].
With `COc1ccc(-c2noc(-c3cccn3CC(=O)N3CCN(c4ccccc4F)CC3)n2)cc1F` the Potency was inconclusive: 56.2 µM [inhibitor, partial curve, poor fit].
For `O=C1CCN(Cc2ccc3c(c2)CCO3)CCCCCCN1`, the Potency was inconclusive: 89.1 µM [inhibitor, single point].
With `O=C1CCN(C(=O)[C@@H]2CCCN2Cc2cccc(F)c2)CCCCCCN1` the “activity change, negative = cytotoxicity” value was inactive: 1.03%.
In the case of `Cn1nc(C2CC2)cc1NC(=O)c1ccc(C(F)(F)F)cc1`, the Potency is reported as inconclusive: 126 µM [inhibitor, single point].
In the case of `CNC(=O)c1cc(C)nc2onc(C3CCCN3C(=O)c3ccccc3Cl)c12` (stereo not given), the “activity change, negative = cytotoxicity” value is reported as inactive: -8.55%.
For `CC(C)CNC(=O)CC(c1cccc(F)c1)c1cn(C)c2ccccc12` (stereo not given), the Potency was inconclusive: 89.1 µM [inhibitor, single point].
With `COc1ccc(Nc2ccnc(N3CCN(C(=O)C4CCCC4)CC3)n2)cc1` the Potency was active: 28.2 µM.
For `Fc1ccc(C2Cn3nnc(-c4nc(-c5ccccc5Cl)no4)c3CO2)cc1` (stereo not given), the Potency was inconclusive: 50.1 µM [inhibitor, partial curve, poor fit].
For `CC(C)C(=O)N1CCn2c(nnc2C2CCN(Cc3ccc(F)cc3F)C2)C1` (stereo not given), the “activity change, negative = cytotoxicity” value was inactive: -9.53%.
With `COc1ccccc1Oc1ncccc1CNCc1c(F)cccc1Cl` the Potency was inconclusive: 56.2 µM [inhibitor, partial curve, poor fit].
With `COc1ccc(-c2cc(N3CCCC(NC(=O)c4cccc(Br)c4)C3)n[nH]2)cc1` (stereo not given) the Potency was inconclusive: 50.1 µM [inhibitor, partial curve, poor fit].
With `CCCS(=O)(=O)N1CCC(F)(c2nc(CC(C)C)no2)CC1` the Potency was inconclusive: 89.1 µM [inhibitor, single point].
For `CC(=O)Nc1ccc(CN2CCCC3(COc4ccccc4C(=O)N3)C2)cc1` (stereo not given), the Potency was inconclusive: 79.4 µM [inhibitor, partial curve, poor fit].
In the case of `O=C(NCc1cccc(Cl)c1)c1ccc2nnc(-c3ccc(Cl)cc3)n2c1`, the Potency is reported as inconclusive: 50.1 µM [inhibitor, partial curve, poor fit].
In the case of `COc1cccc(-c2cc(C3CCN(C(=O)Nc4cc(Cl)ccc4C)CC3)[nH]n2)c1`, the Potency is reported as active: 44.7 µM.
In the case of `Cc1ccc(OCc2nc(C3CN(C(=O)c4ccc(Cn5nc(C)cc5C)o4)C3)no2)cc1`, the Potency is reported as inconclusive: 50.1 µM [inhibitor, partial curve, poor fit].
With `O=C(c1ccc(Cl)cc1)N1CC2(CCN(Cc3ccc(Cl)cc3)CC2)Cc2ccccc21` the Potency was active: 39.8 µM.
With `COc1ccc(CNC(=O)C2CCN(C(=O)c3cc4c(=O)[nH]c(C)cn4n3)CC2)cc1` the “activity change, negative = cytotoxicity” value was inactive: 12.4%.
For `COc1ccc(-c2noc(-c3cccn3CC(=O)Nc3cc(C)ccc3C)n2)cc1F`, the “activity change, negative = cytotoxicity” value was inactive: 10.3%.
With `CN1CC(=O)N(c2ccc(Cl)cc2)Cc2c(NCC(C)(C)C)ncnc21` the Potency was inconclusive: 50.1 µM [inhibitor, partial curve, poor fit].
With `COc1ccccc1N1CCN(C(=O)c2ccc3c(c2)C(O)CCCCCN3C)CC1` (stereo not given) the Potency was active: 44.7 µM.
With `O=C(Nc1cccc(-c2nnc3n2CCCC3)c1)C1CCC1` the “activity change, negative = cytotoxicity” value was inactive: -11%.
For `COc1ccc(C(=O)N[C@H]2CO[C@H]3[C@@H]2OC[C@H]3OC(=O)Nc2ccccc2)cc1`, the Potency was active: 63.1 µM.
With `CCN1c2cc(C(=O)Nc3cccc(OC(F)(F)F)c3)ccc2C(=O)N2CCCCC21` (stereo not given) the Potency was active: 25.1 µM.
